# “And” between values parts separate entries of the source, which are not always exact repeats. Equal values may be shown once. Hit rate of the full screen: of about 230,000 compounds, about 3,600 (1.6%) were called active. Inconclusive results, whose numbers are uncertain, are shown with a selection of clear calls. Calls come from the whole dose curve; as a rule, active = well fitted inhibition curve with a large enough effect (not every such curve was filed as active); inconclusive = small, poorly fitted or top-dose-only effect, or another doubt; inactive = no such curve, though single readings can be large or run the other way. Potencies of inconclusive entries are doubtful fits and often do not repeat. The source holds several records for some structures; these can differ, active in one and inactive in another.
# Target: Lysine-specific demethylase 4E (Homo sapiens) (UniProt B2RXH2)
# Test: qHTS Assay for Inhibitors of Human Jumonji Domain Containing 2E (JMJD2E)
# Conditions: JMJD2E catalytic domain, FDH-coupled NADH fluorescence (FDH is formaldehyde dehydrogenase); series mostly up to 57.1 µM
# Note: nearly all actives have a fitted effect of over 50% in size.
# Potency is the fitted concentration of half-maximal effect; tags give direction and shape of the fitted curve.
# UniProt B2RXH2, sequence (B2RXH2 whole entry, looked up, the tested form may be a part): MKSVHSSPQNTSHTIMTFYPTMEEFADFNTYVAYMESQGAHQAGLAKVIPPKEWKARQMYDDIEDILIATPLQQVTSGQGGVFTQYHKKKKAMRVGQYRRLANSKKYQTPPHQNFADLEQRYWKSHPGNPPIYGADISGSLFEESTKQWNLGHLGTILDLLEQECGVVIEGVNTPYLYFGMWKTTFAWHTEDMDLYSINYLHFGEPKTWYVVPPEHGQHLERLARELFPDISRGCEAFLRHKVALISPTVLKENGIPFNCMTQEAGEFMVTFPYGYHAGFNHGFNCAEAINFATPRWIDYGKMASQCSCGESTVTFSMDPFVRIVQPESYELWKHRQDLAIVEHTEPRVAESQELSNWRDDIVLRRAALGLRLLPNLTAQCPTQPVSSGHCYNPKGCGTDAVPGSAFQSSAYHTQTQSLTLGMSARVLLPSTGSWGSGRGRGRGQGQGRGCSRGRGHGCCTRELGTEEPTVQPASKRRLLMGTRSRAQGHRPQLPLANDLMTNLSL
row,Structure (SMILES),Potency
1,O=C(c1ccco1)c1cn(Cc2ccccc2Cl)c2ccccc12,"inconclusive: 39.8 µM [inhibitor, single point]"
2,COP(=O)(OC)c1nc(-c2ccccc2)oc1NCc1ccccc1,"inconclusive: 31.6 µM [inhibitor, partial curve]"
3,CN1C(=O)NC(c2cccc(O)c2)C(C(=O)c2cccs2)C1(O)C(F)(F)F (configuration not stated),"inconclusive: 39.8 µM [inhibitor, single point]"
4,CC1=NCCc2c1[nH]c1cc(O)ccc21,"inconclusive: 12.6 µM [inhibitor, partial curve] and inconclusive: 31.6 µM [inhibitor, partial curve]"
5,COc1cc(O)c(C(=O)O)c(-c2cc(O)c(O)cc2C)c1,active: 14.1 µM
6,CCc1ccc(-n2c(O)c(/C=N/N3CCCCC3c3cccnc3)c(=O)[nH]c2=O)cc1 (configuration not stated),inactive
7,CSc1ccc(CNC(C)C(O)c2ccccc2)cc1 (configuration not stated),"inconclusive: 25.1 µM [inhibitor, partial curve, poor fit]"
8,Cc1cccc2c1=NC(=O)/C(=C/c1c(O)[nH]c(=O)[nH]c1=O)C=2,"inconclusive: 17.8 µM [inhibitor, partial curve]"
9,COc1ccc(OC)c(N2C(=O)NC(=O)/C(=C/c3ccc([N+](=O)[O-])s3)C2=O)c1,active: 25.1 µM
10,CNC(=O)Oc1ccc(N(C)C)cc1C(C)C,"inconclusive: 39.8 µM [inhibitor, single point]"
11,C#CCN(C)C(C)Cc1ccccc1 (configuration not stated),"inconclusive: 39.8 µM [inhibitor, single point]"
12,Cc1ccc2nc3c(cc2c1)CC1(C(=O)N(C)C(=O)N(C)C1=O)C1CCCCN31 (configuration not stated),"inconclusive: 28.2 µM [inhibitor, partial curve]"
13,COc1ccc(C(=O)C(C)(C)NO)cc1,"inconclusive: 39.8 µM [inhibitor, single point]"
14,CCOC(=O)C1CCN(Cc2c(F)cccc2Cl)CC1,"inconclusive: 28.2 µM [inhibitor, single point]"
15,COc1ccc(-n2c(Cc3ccccc3)nc3ccccc3c2=O)cc1,inactive
16,Cc1c2cnn(CC(=O)N3CCC4(CC3)OCCO4)c(=O)c2c(C)n1Cc1ccccc1F,"inconclusive: 31.6 µM [inhibitor, single point]"
17,Cc1cc(Br)c(NC(=O)CN2CC=C(c3ccccc3)CC2)c(Br)c1,"inconclusive: 39.8 µM [inhibitor, single point]"
18,CCOC(=O)c1c(N)n(CCCOC(=O)c2ccco2)c2nc3ccccc3nc12,"inconclusive: 28.2 µM [inhibitor, partial curve]"
19,CN1C(C(=O)NCc2cccc(C(F)(F)F)c2)CC2Cn3c(nc4cc5ccccc5cc43)C21 (configuration not stated),"inconclusive: 39.8 µM [inhibitor, single point]"
20,CCCCCCCCCCCCCC(=O)OC1C(C)[C@@]2(O)C(C=C(CO)C[C@]3(O)C(=O)C(C)=C[C@H]23)[C@@H]2C(C)(C)[C@]12OC(C)=O (some centres not stated),"inconclusive: 35.5 µM [inhibitor, single point]"
21,CC(C)C[C@H]1C(=O)N2CCC[C@@H]2[C@]2(O)O[C@](NC(=O)[C@@H]3C=C4c5cccc6[nH]c(Br)c(c56)C[C@H]4N(C)C3)(C(C)C)C(=O)N12,"inconclusive: 28.2 µM [inhibitor, partial curve]"
22,CNC(=O)OCc1n(C)cc[n+]1C,"inconclusive: 39.8 µM [inhibitor, single point]"
23,S=C(Nc1ccccc1)Nc1cccc(Br)c1,"inconclusive: 39.8 µM [inhibitor, single point]"

row,Structure (SMILES),Potency
1,NC(N)=NC(=O)c1nc(Cl)c(N)nc1N,"inconclusive: 28.2 µM [inhibitor, partial curve] [middle of 5 runs]"
2,Nc1c(C(=O)NCc2ccco2)c2nc3ccccc3nc2n1CCN1CCOCC1,"inconclusive: 35.5 µM [inhibitor, single point]"
3,CC(=O)CC(c1ccccc1)c1c(O)c2ccccc2oc1=O (configuration not stated),"inconclusive: 25.1 µM [inhibitor, partial curve]"
4,S=C(S)N1CCCC1,"inactive and inconclusive: 39.8 µM [inhibitor, partial curve, poor fit]"
5,N=C1c2ccccc2CN1CC(=O)c1ccccc1,"inconclusive: 28.2 µM [inhibitor, single point]"
6,O=C(O)c1ccccc1-c1c2cc(Br)c(=O)cc-2oc2[c]([Hg])c(O)c(Br)cc12,active: 5.01 µM
7,CN1C(=O)C(=Cc2ccccc2OCc2ccccc2Cl)C(=O)N(C)C1=O,"inconclusive: 25.1 µM [inhibitor, single point]"
8,Cc1noc(C(=O)Nc2sc3c(c2C#N)CCC3)c1Cl,"inconclusive: 35.5 µM [inhibitor, single point]"
9,CC(C)CNC(=O)c1c(N)n(Cc2ccc3c(c2)OCO3)c2nc3ccccc3nc12,"inconclusive: 22.4 µM [inhibitor, partial curve]"
10,CC[C@@H]1C(=O)OC[C@@H]1Cc1cncn1C,active: 25.1 µM
11,Cc1ccc2ccccc2c1NC(=O)CNC1CCCCC1,inactive
12,N[C@@H](Cn1oc(=O)[nH]c1=O)C(=O)O,active: 10 µM and active: 20 µM
13,Cn1c(O)c(C(c2ccccn2)c2c(O)n(C)c(=S)[nH]c2=O)c(=O)[nH]c1=S,"inconclusive: 25.1 µM [inhibitor, single point]"
14,O=C(NC1CCCCC1)Oc1cc2oc(=O)sc2cc1Cl,"inconclusive: 31.6 µM [inhibitor, single point]"
15,COC(=O)C(C#N)C(c1cccnc1)c1c(C)[nH][nH]c1=O (configuration not stated),"inconclusive: 39.8 µM [inhibitor, single point]"
16,NC(=O)c1ccc(N=Cc2c(O)n(Cc3ccco3)c(=O)[nH]c2=O)cc1,"inconclusive: 14.1 µM [inhibitor, partial curve]"
17,COc1ccc(CN2C(=O)NC(=O)/C(=C/c3ccc(OC)c(OC)c3OC)C2=O)cc1,"inconclusive: 39.8 µM [inhibitor, single point]"
18,O=C1NC(=O)N(c2ccccc2)C(=O)/C1=C\c1ccccc1[N+](=O)[O-],inactive
19,COc1ccc(Cn2c(O)c(C=NCCN3CCOCC3)c(=O)[nH]c2=O)cc1,inactive
20,COCCCNC(=S)NCCCNc1nc2cc(C)cc(C)c2cc1C#N,"inconclusive: 31.6 µM [inhibitor, partial curve]"
21,O=C(O)c1cc(S(=O)(=O)Nc2ccccc2C(=O)O)ccc1O,"inconclusive: 39.8 µM [inhibitor, single point]"
22,CCC(CC)N1CCN(C(=O)Cc2ccccc2)CC1,"inconclusive: 39.8 µM [inhibitor, single point]"
23,Cc1ccc2oc(-c3ccccc3)cc(=O)c2c1,"inconclusive: 15.8 µM [inhibitor, full curve]"

row,Structure (SMILES),Potency
1,COc1ccc(N2C(=O)/C(=C/c3cccs3)C(=O)NC2=S)cc1,"inconclusive: 22.4 µM [inhibitor, single point]"
2,CCN(CC)CCOC(=O)c1ccc(N=Cc2c(O)[nH]c(=O)[nH]c2=O)cc1,inactive
3,c1cncc(CNC2CCCC2)c1,active: 22.4 µM
4,CCCOC(=O)c1c(N)n(Cc2cccs2)c2nc3ccccc3nc12,"inconclusive: 31.6 µM [inhibitor, partial curve]"
5,CC(C)n1c(/C=C\[C@@H](O)C[C@@H](O)CC(=O)O)c(-c2ccc(F)cc2)c2ccccc21,"inconclusive: 11.2 µM [inhibitor, partial curve]"
6,O=Cc1cn(Cc2ccc([N+](=O)[O-])cc2)c2ccccc12,inactive
7,CNC(=O)O/N=C(/C)SC,inactive
8,Nc1ccc(C2(c3ccc(N)cc3)c3ccccc3-c3ccccc32)cc1,"inconclusive: 35.5 µM [inhibitor, partial curve]"
9,CC(C)CCOC(=O)c1c(N)n(CC2CCCO2)c2nc3ccccc3nc12 (configuration not stated),"inconclusive: 31.6 µM [inhibitor, partial curve]"
10,CCc1ccccc1N1C(=O)/C(=C/c2ccc(N3CCN(C)CC3)o2)C(=O)NC1=S,inactive
11,C=CCN1C(=O)NC(=O)/C(=C/c2cnc(SC)nc2)C1=O,"inconclusive: 28.2 µM [inhibitor, single point]"
12,Nc1c2c(nc3ccccc13)CCCC2=O,"inconclusive: 25.1 µM [inhibitor, partial curve]"
13,O=C(c1c[nH]c2ccc(S(=O)(=O)N3CCOCC3)cc2c1=O)N1CCC2(CC1)OCCO2,"inconclusive: 31.6 µM [inhibitor, partial curve]"
14,COP(=S)(OC)Oc1ccc(SC)c(C)c1,inactive
15,CCOC(=O)c1ccc(NC(=O)c2c(O)[nH]c(=O)[nH]c2=O)cc1,"inconclusive: 39.8 µM [inhibitor, single point]"
16,Cc1ccc2c(c1)C1CN(C)CCC1N2C(=O)CCCN1C(=O)c2cccc3cccc(c23)C1=O (configuration not stated),"inconclusive: 31.6 µM [inhibitor, single point]"
17,N#C/C(=C\c1cccc(O)c1)C(=O)O,"inconclusive: 39.8 µM [inhibitor, single point]"
18,COc1ccc(/C=C2/C(=O)NC(=S)N(C3CC3)C2=O)cc1CN1C(=O)c2ccccc2C1=O,"inconclusive: 39.8 µM [inhibitor, single point]"
19,CCOC(=O)c1ccc(N=Cc2c(O)n(-c3ccccc3F)c(=S)[nH]c2=O)cc1,inactive
20,NO,active: 1.41 µM
21,CN1CCN(c2nc3ccccn3c(=O)c2C=C2C(=O)N(C)C(=O)N(C)C2=O)CC1,inactive
